Experimental data published in PubChem BioAssay (NCI).
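Growth conditions: 96-well plates. Treatment: test compound, 48 hours, 5 concentrations. Analysis: linear interpolation between bracketing concentrations; unreached endpoints set to highest concentration. GI50 marks 50% less growth.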 Certain results were filed several times, with different values. This is not the full list of results. There may be further records. For some assays here: The tests behind the records often covered other concentration ranges, which the source does not state; a value can be the end of its range. For some assays here: The values listed for one entry repeat one measurement (runs, samples, wells, individuals or studies). Marks in square brackets tell the records apart. The letters are not those of the source and start again with each entry.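 At the TGI there is no net growth.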

Legend:
Experiment in all cases: NCI anticancer screen, dose series, 48 h
[1] = tested on: SK-OV-3 ovarian
[2] = tested on: NCI/ADR-RES ovarian
[3] = tested on: SK-MEL-28 melanoma
[4] = tested on: UO-31 renal
[5] = tested on: SW-620 colon
[6] = tested on: DMS 273 small cell lung
[7] = tested on: MOLT-4 leukemia
[8] = tested on: K-562 leukemia
[9] = tested on: KM12 colon
[10] = tested on: MALME-3M melanoma
[11] = tested on: A549 NSCLC
[12] = tested on: SR leukemia
[13] = tested on: MCF7 breast
[14] = tested on: ACHN renal
[15] = tested on: CCRF-CEM leukemia
[16] = tested on: 786-0 renal
[17] = tested on: SF-539 CNS
[18] = tested on: OVCAR-8 ovarian

O=C1C=C(OCCCl)C(=O)c2c(O)ccc(O)c21
TGI [1]: 3.31 µM and 48.9 µM
TGI [2]: 7.26 µM and 74.4 µM
TGI [3]: 316 nM and 3.97 µM

C(=N/NC1=NCCN1)/c1c2ccccc2c(/C=N\NC2=NCCN2)c2ccccc12
TGI [2]: 9.19 µM and 169 µM
TGI [4]: 5.33 µM [mean of 3 tests] and 68.8 µM [mean of 4 tests] and 145 µM [mean of 5 tests]
TGI [5]: 2.03 µM [mean of 2 tests] and 1.06 µM [mean of 4 tests] and 13.2 µM [mean of 7 tests]
TGI [6]: 841 nM and 11 µM
TGI [7]: 57.8 nM, 330 nM, 1.08 µM

CCN(CC)CCC(=O)O[C@H]1CC[C@H](CC(C)[C@H]2CC(=O)C(C)C=C(C)[C@H](OC(=O)CCN(CC)CC)C(OC)C(=O)[C@@H](C)CC(C)/C=C/C=C/C=C(C)C(OC)CC3CC[C@H](C)[C@](O)(O3)C(=O)C(=O)N3CCCCC3C(=O)O2)CC1OC (stereo partly drawn)
GI50 [8]: 1.25 µM [1 test] and 45.2 nM [mean of 8 tests]
GI50 [9]: 34.1 nM and 1.72 µM
TGI [10]: 77.1 nM and 1.44 µM
GI50 [11]: 145 nM and 4.85 nM
GI50 [12]: 51.1 nM and 1.07 µM
GI50 [2]: 39 nM and 1.24 µM
GI50 [13]: 76.8 nM and 1.08 µM
GI50 [14]: 97.7 nM and 1.05 µM
GI50 [15]: 0.67 nM and 1.11 µM
GI50 [16]: 209 nM and 14.5 nM
GI50 [17]: 208 nM and 11.6 nM

Nc1nc(Cl)nc2c1ncn2[C@@H]1O[C@H](COS(N)(=O)=O)[C@@H](O)[C@H]1O
TGI [13]: 162 nM and 11.5 µM
TGI [5]: 196 nM and 10.2 µM

COc1cc2c3cc1Oc1c(OC)c(OC)cc4c1C(Cc1ccc(cc1)Oc1cc(ccc1O)CC3N(C)CC2)N(C)CC4 (stereo not drawn)
TGI [8]: > 100 µM [sample A] and 5.01 µM [sample B]
GI50 [18]: > 100 µM [sample A, 1 test] and 9.41 µM [sample B, 1 test]
